Values marked as one replicate rest on one cluster of the flow cell; about a third of the high ones do not repeat.
Test system: ATP
Test: switch fluorescence ratio, 500 uM ATP over buffer (Cy3 cluster intensity, sum of 5 cycles each) (fold (ratio)); higher = stronger signal-on switching upon ATP binding; sequences stand for … in TCGTCGGCAGCGTCAGATGTGTATAAGAGACAGTTTTTTTTTTTTTTTTTTTTTTTTT…TC
Conditions: aptamer strand: ATP DNA aptamer (quencher-CACCTGGGGGAGTATTGCGGAGGAAGG + anchor), 100 nM annealed; ATP concentration: 500 uM; one replicate
How it was run: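 Clusters with intensities outside 100-1000 RFU were excluded. The remaining Cy3-labelled switching-strand clusters on a modified Illumina MiSeq flow-cell had been annealed to 100 nM quencher-labelled ATP aptamer and imaged in selection buffer, then after 15 min with 500 uM ATP at 22 °C, for five cycles separated by NaOH stripping and re-annealing. The fluorescence ratio, averaged per switch-domain sequence, is each cluster's summed target-cycle Cy3 intensity over its summed buffer-cycle Cy3 intensity.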
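Also: ATP exposure 15 min at 22 °C before imaging.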

TCAATTAAAC
switch fluorescence ratio: 1.01

ACAAAGCACT
switch fluorescence ratio: 1.19

GAGTTTGGGG
switch fluorescence ratio: 0.982

TTGTTGCG
switch fluorescence ratio: 0.896

AGGGCTCAGG
switch fluorescence ratio: 0.975

AGTGTGGGAG
switch fluorescence ratio: 0.973

CTGCGATTG
switch fluorescence ratio: 1.07

AATTCGCTTA
switch fluorescence ratio: 1.14

CTAGTTTATT
switch fluorescence ratio: 0.996

TTAGTAGAAG
switch fluorescence ratio: 1.04

CGCCAGAATA
switch fluorescence ratio: 1.04

CGCTCGCCCC
switch fluorescence ratio: 1.98

GACAGTATTC
switch fluorescence ratio: 1.05

TTGTTGCTGC
switch fluorescence ratio: 1.07

TGCTAAGGG
switch fluorescence ratio: 1.01

ATATCTATCA
switch fluorescence ratio: 0.959

GGCAGCATC
switch fluorescence ratio: 1.19

TTAATTGT
switch fluorescence ratio: 0.989

ACCCTGGGCC
switch fluorescence ratio: 1

AGATTCGAGA
switch fluorescence ratio: 1.02

ATAATATTTA
switch fluorescence ratio: 1.01

TACTGGGCAT
switch fluorescence ratio: 1.02

TTAAACATGG
switch fluorescence ratio: 0.996

TGCAAAACTA
switch fluorescence ratio: 1.04

CGACTCGGCT
switch fluorescence ratio: 0.963

GGGTGGAGGT
switch fluorescence ratio: 1.02

CAAGACCTGA
switch fluorescence ratio: 1.03

CCGATAGTGA
switch fluorescence ratio: 1.64

TAAGTAGCT
switch fluorescence ratio: 1.06

ATATCAGGTC
switch fluorescence ratio: 1.06

GCTAGGGAGC
switch fluorescence ratio: 0.969

GCGTACAACA
switch fluorescence ratio: 1.04

CCGGGGCGTG
switch fluorescence ratio: 0.976

AGCCATTTTT
switch fluorescence ratio: 0.947

GTCAAAAAGA
switch fluorescence ratio: 0.982

CTCTAAGGAA
switch fluorescence ratio: 1.02

TGACTAGTTA
switch fluorescence ratio: 1

ACTAGACCGT
switch fluorescence ratio: 1.06

TGTGAGCGTA
switch fluorescence ratio: 1.05

GGGTCGTCTA
switch fluorescence ratio: 0.961

TTTAGTGTGT
switch fluorescence ratio: 0.953

AGGGAACGAG
switch fluorescence ratio: 1.01

AGATGACTGG
switch fluorescence ratio: 1.02

CTCATTGCCA
switch fluorescence ratio: 1

CGATCGTAT
switch fluorescence ratio: 0.999

TACTTCCGGG
switch fluorescence ratio: 1.41

TCCAAAAGAT
switch fluorescence ratio: 0.999

CTAGTTTGCC
switch fluorescence ratio: 0.992

TAAGTATCTC
switch fluorescence ratio: 0.984

CTGGCCTTGC
switch fluorescence ratio: 1.12

GAACATTAGT
switch fluorescence ratio: 1.11

CCACGTTATT
switch fluorescence ratio: 1.15

GCAATTTAAT
switch fluorescence ratio: 1.01

TCATAAGAT
switch fluorescence ratio: 0.999

GGTCACTAG
switch fluorescence ratio: 0.979

AGCCGTGCTT
switch fluorescence ratio: 0.91

GCTAAGGGGG
switch fluorescence ratio: 1.01

GTTAAATGGA
switch fluorescence ratio: 0.973

TGGTGGCACA
switch fluorescence ratio: 0.98

AATAGGTTAT
switch fluorescence ratio: 0.952

ATTTAACATT
switch fluorescence ratio: 0.976

GGAAACGT
switch fluorescence ratio: 1.09

CTAGGTAAC
switch fluorescence ratio: 1

GTCAATGAGC
switch fluorescence ratio: 1.37

AGCGTGAGTC
switch fluorescence ratio: 1.06

CTGGTCGTTC
switch fluorescence ratio: 0.988

AGATCCGCCT
switch fluorescence ratio: 1.06

TTCCACTCGT
switch fluorescence ratio: 0.979

AGTGGAGGAT
switch fluorescence ratio: 0.962

GAATGTAATG
switch fluorescence ratio: 1

TTAGTTCGCT
switch fluorescence ratio: 0.996

GGGATTTTTC
switch fluorescence ratio: 1.01

AGGTGATCGG
switch fluorescence ratio: 0.988

AGCACTTAGT
switch fluorescence ratio: 1.03

GTTAAGAAGG
switch fluorescence ratio: 0.921

CGTCTACCTT
switch fluorescence ratio: 1.06

ACGGATGGTC
switch fluorescence ratio: 0.977

TCGGGGATTG
switch fluorescence ratio: 0.966

TCGAGGGA
switch fluorescence ratio: 1.03

GTATCAGTTC
switch fluorescence ratio: 1.04

TTCGAGCTCC
switch fluorescence ratio: 1.04

AAGATGGGCT
switch fluorescence ratio: 1

AGATCTGCTA
switch fluorescence ratio: 0.991

TCGTGCCACG
switch fluorescence ratio: 0.934

ACGAAGTGGA
switch fluorescence ratio: 1.01

TATCAGTGTG
switch fluorescence ratio: 1.03

TTATCCTCTG
switch fluorescence ratio: 1.08

AGCTGTAACT
switch fluorescence ratio: 0.967

TAATCCCAAC
switch fluorescence ratio: 1.09

GAAATTCAGT
switch fluorescence ratio: 0.974

CGATGGTCGG
switch fluorescence ratio: 1.01

GATTTCGAA
switch fluorescence ratio: 1.05

GTGAAACGCA
switch fluorescence ratio: 1.06

TTGACCAGTG
switch fluorescence ratio: 0.963

AACTGCCGGC
switch fluorescence ratio: 1.13

AATGGGGCGA
switch fluorescence ratio: 0.991

GAATCGCGGC
switch fluorescence ratio: 0.959

ACGCGCCTTA
switch fluorescence ratio: 0.99

AGCTAATCCA
switch fluorescence ratio: 0.993

CCGTTGGGG
switch fluorescence ratio: 1.09

TCTTTCGTTT
switch fluorescence ratio: 1.08

CTCCAGGGGT
switch fluorescence ratio: 4.62

GTGGCAATTA
switch fluorescence ratio: 1.17

CGCCATTCTA
switch fluorescence ratio: 1.03

GATCTCTCGG
switch fluorescence ratio: 1.04

TGAATGCACT
switch fluorescence ratio: 1.06

TACGGCGGCT
switch fluorescence ratio: 0.874

CCGTTCGTTT
switch fluorescence ratio: 1.09

AGTCATGTT
switch fluorescence ratio: 0.946

TAGCCGAAGA
switch fluorescence ratio: 0.973

TAGAATGCTA
switch fluorescence ratio: 1.01

TTGCGCGTAA
switch fluorescence ratio: 1.22

ATACTAGCAG
switch fluorescence ratio: 1.01

AACTTTTGGG
switch fluorescence ratio: 0.982

AATAGGCGAT
switch fluorescence ratio: 0.989

TATACTCCGC
switch fluorescence ratio: 2.77

GGAAGGCTCT
switch fluorescence ratio: 0.995

GTGTCAGCTC
switch fluorescence ratio: 1.01

AGCGTGTCCC
switch fluorescence ratio: 1.09

GCCATTTCTA
switch fluorescence ratio: 0.973

TAATAAAAGT
switch fluorescence ratio: 0.987

AAGTTCTGG
switch fluorescence ratio: 0.936

GGCTTGGTCG
switch fluorescence ratio: 0.992

TAGTCAGCCC
switch fluorescence ratio: 0.99

TTCGAACCTA
switch fluorescence ratio: 0.994

TACATTTTAG
switch fluorescence ratio: 1

TCTAGGGGAC
switch fluorescence ratio: 1.05

GCTTTTATCT
switch fluorescence ratio: 0.999

CTATTTTAAT
switch fluorescence ratio: 1.01

ATGTGTAAGC
switch fluorescence ratio: 0.966

AAGGAGACAC
switch fluorescence ratio: 1

GAAACGAGGG
switch fluorescence ratio: 1.02

AGTAAAGACG
switch fluorescence ratio: 1.06

TCCTATCTTA
switch fluorescence ratio: 1.02

AAGGTCCTTA
switch fluorescence ratio: 0.973

TTGGCTCTCG
switch fluorescence ratio: 0.969

CCAGGACTCG
switch fluorescence ratio: 0.987

GACAGTATT
switch fluorescence ratio: 0.994

AGGGCAGCCT
switch fluorescence ratio: 1

AGCGGTTCTG
switch fluorescence ratio: 1.09

CGAGTCAATT
switch fluorescence ratio: 1.51

ATAATGAGGG
switch fluorescence ratio: 0.986

ATTCACTTGC
switch fluorescence ratio: 1.04

ACGACCCCGC
switch fluorescence ratio: 1.67

CACAATAAGC
switch fluorescence ratio: 1.09

GGTTGTTCAA
switch fluorescence ratio: 0.947

TACTCAGGAG
switch fluorescence ratio: 1.03

ATCAGTCGGC
switch fluorescence ratio: 1.04

CTTGTTGGAG
switch fluorescence ratio: 0.965

CCTGGGGGCG
switch fluorescence ratio: 1.01

CGGGAATTTA
switch fluorescence ratio: 0.997

TACAGTACTT
switch fluorescence ratio: 1.42

GTCCGTGGCT
switch fluorescence ratio: 0.959

TGATTGTAGA
switch fluorescence ratio: 1.01

GGCCGAGCGG
switch fluorescence ratio: 1.02

AAGTATTGT
switch fluorescence ratio: 0.992

CGCGTCCCCT
switch fluorescence ratio: 1.37

CCTCGAAGAT
switch fluorescence ratio: 1.79

TGCATGTATG
switch fluorescence ratio: 0.991

TCTCTTCACT
switch fluorescence ratio: 1.09

TGATTAGTGC
switch fluorescence ratio: 1

AGTGAGTAAG
switch fluorescence ratio: 0.964

GCCTCAGGGC
switch fluorescence ratio: 1.01

TCCTTATTTC
switch fluorescence ratio: 0.988

TTAGATAACA
switch fluorescence ratio: 0.95

AAAGACTATC
switch fluorescence ratio: 1.07

AAGTGCACAT
switch fluorescence ratio: 1.03

TCTGGATTTG
switch fluorescence ratio: 0.979

AACTGAAATC
switch fluorescence ratio: 1.04

ATTGCGGGGT
switch fluorescence ratio: 0.956

ATAATCTTTT
switch fluorescence ratio: 1

GTAATACCTA
switch fluorescence ratio: 1.07

TGACTGGTAA
switch fluorescence ratio: 1.2

CGTCTCAGGT
switch fluorescence ratio: 1.04

CTAATTATAT
switch fluorescence ratio: 1.02

GGCTGGGGTC
switch fluorescence ratio: 0.959

GAGTAGTCGG
switch fluorescence ratio: 1.03

ATTCAGCTG
switch fluorescence ratio: 1.01

CTGGTAGCGG
switch fluorescence ratio: 1.03

ATGTCGCATG
switch fluorescence ratio: 1.04

TGTCCCGTCA
switch fluorescence ratio: 1.01

GCACACCGCA
switch fluorescence ratio: 1.16

GGCCCGGCTA
switch fluorescence ratio: 1.02

GAGTTTTAAC
switch fluorescence ratio: 0.989

TTTTACTCGG
switch fluorescence ratio: 1

TAGCGCGTCG
switch fluorescence ratio: 0.994

TGGTTTATAG
switch fluorescence ratio: 1

CGTCCGAACG
switch fluorescence ratio: 1.34

ACCTGCGCCT
switch fluorescence ratio: 1.34

GCCACAGTTA
switch fluorescence ratio: 1.02

CGCCAAGGGA
switch fluorescence ratio: 1.04

CGAGTTACCT
switch fluorescence ratio: 1.15

TTTTAGCACT
switch fluorescence ratio: 1.08

TCGCCGCGAA
switch fluorescence ratio: 2.11

GAGTCAGTCC
switch fluorescence ratio: 0.978

GGGGTTGATC
switch fluorescence ratio: 0.975

AAATCGGAAG
switch fluorescence ratio: 0.935

TCATGCGGTC
switch fluorescence ratio: 1.01

TCCTGGAGT
switch fluorescence ratio: 1.05

ATGTTTTGAT
switch fluorescence ratio: 1.02

AAACCTAGTA
switch fluorescence ratio: 1.01

Source: the supplement of paper PMC10126150
